Experimental findings from paper PMC4336329 (PLoS ONE, 2015) are described below.

In all, about 310,000 compounds went through this assay and about 2,200 (0.71%) showed an effect of 50% or more. The effect is printed as a negative number. The list shows a part of the results.

The target of the assay is human ether-à-go-go-related gene (hERG) potassium channel (human, UniProt Q12809). Description: primary screen, population patch clamp on CHO cells stably expressing hERG.
human ether-à-go-go-related gene (hERG) potassium channel, sequence (Q12809 whole entry, looked up): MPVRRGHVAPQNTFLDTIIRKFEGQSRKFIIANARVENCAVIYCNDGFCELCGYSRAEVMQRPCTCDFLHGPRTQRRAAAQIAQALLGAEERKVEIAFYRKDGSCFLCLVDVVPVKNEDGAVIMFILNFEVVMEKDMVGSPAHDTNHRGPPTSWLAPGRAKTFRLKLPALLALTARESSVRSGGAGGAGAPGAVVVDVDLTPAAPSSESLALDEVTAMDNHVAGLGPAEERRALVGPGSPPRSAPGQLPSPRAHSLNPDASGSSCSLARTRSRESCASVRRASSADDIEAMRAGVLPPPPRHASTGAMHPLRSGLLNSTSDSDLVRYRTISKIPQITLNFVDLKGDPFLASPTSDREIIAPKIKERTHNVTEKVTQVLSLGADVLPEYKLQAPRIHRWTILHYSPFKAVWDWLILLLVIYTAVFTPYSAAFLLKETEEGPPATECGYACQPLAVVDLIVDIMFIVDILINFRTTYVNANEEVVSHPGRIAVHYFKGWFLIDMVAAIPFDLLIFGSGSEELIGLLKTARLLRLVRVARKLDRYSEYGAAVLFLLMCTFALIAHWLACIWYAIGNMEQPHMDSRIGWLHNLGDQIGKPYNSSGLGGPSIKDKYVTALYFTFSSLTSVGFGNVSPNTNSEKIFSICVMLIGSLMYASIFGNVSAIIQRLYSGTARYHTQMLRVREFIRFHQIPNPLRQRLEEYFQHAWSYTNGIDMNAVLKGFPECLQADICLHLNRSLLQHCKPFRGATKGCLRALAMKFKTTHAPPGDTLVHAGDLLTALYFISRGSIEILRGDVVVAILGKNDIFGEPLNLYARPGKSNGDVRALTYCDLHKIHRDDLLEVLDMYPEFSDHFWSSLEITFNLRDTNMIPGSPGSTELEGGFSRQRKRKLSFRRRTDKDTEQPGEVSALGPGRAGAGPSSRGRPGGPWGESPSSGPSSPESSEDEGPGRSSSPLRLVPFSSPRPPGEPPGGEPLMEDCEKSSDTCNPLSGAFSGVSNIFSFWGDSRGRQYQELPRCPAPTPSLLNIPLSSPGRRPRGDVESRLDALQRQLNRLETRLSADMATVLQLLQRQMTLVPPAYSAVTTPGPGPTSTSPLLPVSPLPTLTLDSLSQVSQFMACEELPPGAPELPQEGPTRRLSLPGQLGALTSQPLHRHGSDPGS
On to `CCOC(=O)c1c(-c2ccc(OC)cc2)nc2nonc2c1N`, for which the “hERG current change (%, negative = inhibition) at 1uM” value is reported as -14.4%. Next, `CCCc1[nH]nc2c1C(c1cccc(OC)c1)C(C#N)=C(N)O2` (centres unmarked): -8.04%; `Cn1c(CNC(=O)CCNC(=O)c2ccccc2)cc(=O)n(C)c1=O`: 14.1%; `CC(C)N1CCN(Cc2cccc3c2OCO3)CC1CCO` (centres unmarked): 12.7%. Take `Clc1ccc(NC2=NCCC2)cc1Cl`: the “hERG current change (%, negative = inhibition) at 1uM” value turned out to be 2.32%. With `CCn1c(CSc2nc3ccccc3n2C)nc2ccccc21`, the “hERG current change (%, negative = inhibition) at 1uM” value is -1.84%. As to `CCOc1ccc(C(=O)CCC(=O)N(CC)CC(=O)Nc2c(F)cccc2F)cc1`, the “hERG current change (%, negative = inhibition) at 1uM” value was -10.3%.

As to `O=C(Nc1ccccc1)c1cccc(N2CCCC2=O)c1`, the “hERG current change (%, negative = inhibition) at 1uM” value amounted to 9.77%. In the case of `O=C(Nc1ccccc1)NC(Cc1ccc(O)cc1)C(=O)O` (centres unmarked), the “hERG current change (%, negative = inhibition) at 1uM” value worked out at 2.06%. Consider `CC(C)Cn1c(N)c(C(=O)COC(=O)CCNS(=O)(=O)c2ccccc2)c(=O)n(C)c1=O`, for which the “hERG current change (%, negative = inhibition) at 1uM” value was -8.67%. In the case of `O=C(O)CC(NC(=O)C12CC3CC(CC(C3)C1)C2)c1ccc(Cl)cc1` (centres unmarked), the “hERG current change (%, negative = inhibition) at 1uM” value came to 8.96%. Next, `CN(C)S(=O)(=O)Oc1ccc(C(=O)Nc2cccc(C(F)(F)F)c2)cc1`: 15.2%. In the case of `COc1cc(C(=O)Cc2nc3ccccc3n2C)cc(OC)c1OC`, the “hERG current change (%, negative = inhibition) at 1uM” value was 13.8%. Take `Cc1ccc(C)c(NC(=O)NNS(=O)(=O)c2ccc(C)c(C)c2)c1`: the “hERG current change (%, negative = inhibition) at 1uM” value is recorded as 12.5%. Regarding `Cc1ccc(C2=NN(C(=O)CN3CCN(C4CCS(=O)(=O)C4)CC3)C(c3ccco3)C2)cc1` (centres unmarked), the “hERG current change (%, negative = inhibition) at 1uM” value is on record as 10.3%. As to `CN=C(Nc1cccc(Cl)c1)SC1CC(=O)N(c2ccc(OC)cc2)C1=O` (centres unmarked), the “hERG current change (%, negative = inhibition) at 1uM” value came out at 12.8%. For the compound `COC(=O)c1ccc(C(=O)OC)c(NC(=O)COC(=O)c2ccc(OC)c(OC)c2OC)c1`, the “hERG current change (%, negative = inhibition) at 1uM” value is given as 17.6%. As for `CCOC(=O)C1CCCN(C2CC(=O)N(c3cccc(C(F)(F)F)c3)C2=O)C1.Cl` (centres unmarked), the “hERG current change (%, negative = inhibition) at 1uM” value is reported as -2.97%.

Regarding `CCC(COC)NCc1cn(-c2ccc(OC)cc2)nc1-c1cccc(F)c1` (centres unmarked), the “hERG current change (%, negative = inhibition) at 1uM” value is recorded as -17.6%. With `COC(=O)CSc1nc2c(c(-c3ccco3)c1C#N)CCCC2`, the “hERG current change (%, negative = inhibition) at 1uM” value was found to be 4.99%. Consider `COc1ccc(NC(=O)C2C3C=CC(C3)C2C(=O)NCc2ccccn2)c(OC)c1` (centres unmarked), for which the “hERG current change (%, negative = inhibition) at 1uM” value came to 11.8%. Turning to `O=c1[nH]nc(SCc2ccccc2)n1C1CC2C=CC1C2` (centres unmarked), the “hERG current change (%, negative = inhibition) at 1uM” value turned out to be 12.9%. Next, `COc1ccc(-c2nc(-c3ccc(Br)o3)no2)cc1OC`: 9.14%. As for `Cc1cccc(-n2nnc(C(=O)NCc3ccccn3)c2N)c1`, the “hERG current change (%, negative = inhibition) at 1uM” value is on record as 6.6%.

Regarding `O=C(CCNc1n[nH]c(=O)[nH]c1=O)N1CCOCC1`, the “hERG current change (%, negative = inhibition) at 1uM” value is -8.49%. Next, `CC(C)(C)c1ccc(C(=O)NCc2ccccc2)cc1`: 20.1%; `Cn1c(-c2ccc(F)cc2)cnc1NCc1ccccc1`: -17.4%; `CCOc1ccc(NC(=O)CSc2nnc(C3CC3)n2C2CC2)cc1`: 0.687%. Consider `Cc1ccc(NC(=O)Nc2ccccc2)nc1`, for which the “hERG current change (%, negative = inhibition) at 1uM” value worked out at 13.1%.

Consider `C=CCn1c(SCC(=O)N(CCOC)c2c(N)n(CCCC)c(=O)[nH]c2=O)nnc1-c1ccc(Cl)cc1`, for which the “hERG current change (%, negative = inhibition) at 1uM” value is -2.96%. Next, `COc1ccccc1CNC(=O)COc1ccc(C)cc1`: 8.73%; `CC1(c2ccccc2)NC(=O)N(CC(=O)NC(=O)NC2CCCC2)C1=O` (centres unmarked): 7.27%; `Cn1cnc([N+](=O)[O-])c1Nc1ccc(O)cc1`: 13.4%.

In the case of `CCCOc1cc(CC(=O)NCc2ccco2)ccc1OC`, the “hERG current change (%, negative = inhibition) at 1uM” value was 10.5%. Regarding `Cc1cc(C)c(C)c(OCCCCN2CCCCC2)c1`, the “hERG current change (%, negative = inhibition) at 1uM” value is recorded as -16.5%. Next, `NS(=O)(=O)c1cccc(NC(=O)COC(=O)CNC(=O)c2ccc(-c3ccccc3)cc2)c1`: 6.13%; `CN(C)C(=O)Oc1ccc(OC(=O)c2ccccc2)cc1`: 10.4%; `O=C(CCCOc1ccccc1)Nc1ccncc1`: 7.42%. Take `Cc1ccc2c(c1)N(CC(=O)NCCc1ccccc1)C(=O)c1cccnc1O2`: the “hERG current change (%, negative = inhibition) at 1uM” value came out at 2.62%.

As for `COc1ccccc1CNC(=O)c1ccccc1N(C)S(C)(=O)=O`, the “hERG current change (%, negative = inhibition) at 1uM” value is listed as 4.21%. Regarding `Fc1ccc(Cn2ccc(-c3cnc(-c4ccccc4)s3)n2)cc1`, the “hERG current change (%, negative = inhibition) at 1uM” value was found to be 11.9%.

With `COc1n[nH]c(C(=O)Nc2nc3ccccc3s2)c1[N+](=O)[O-]`, the “hERG current change (%, negative = inhibition) at 1uM” value stood at 11.3%.

With `CN(C(=O)CSc1nc2ccccc2s1)c1c(N)n(Cc2ccccc2)c(=O)[nH]c1=O`, the “hERG current change (%, negative = inhibition) at 1uM” value came to 7.34%. With `COc1ccc2c(c1)C(c1cccs1)=NNC(c1cccnc1)=N2`, the “hERG current change (%, negative = inhibition) at 1uM” value came out at 16.1%. `N#Cc1cc2c(=O)n3ccccc3nc2n(Cc2cccnc2)c1=O`: the “hERG current change (%, negative = inhibition) at 1uM” value was 2.54%.

Regarding `Cc1ccc2c(c1)cc1c(=O)n(CC(=O)NCCCc3ccccc3)nc(C)n12`, the “hERG current change (%, negative = inhibition) at 1uM” value is 14.2%. In the case of `CCOc1ccc2c(c1)-c1c(ssc1=S)C(C)(C)N2C(=O)CSC1=NCCS1`, the “hERG current change (%, negative = inhibition) at 1uM” value was 6.46%. For the compound `Cc1ccc(C(=O)COC(=O)C2CC3CCCC(C2)C3=O)cc1[N+](=O)[O-]` (centres unmarked), the “hERG current change (%, negative = inhibition) at 1uM” value stood at 11.7%.

Take `CCc1nn2cc(-c3ccccc3)nc2s1`: the “hERG current change (%, negative = inhibition) at 1uM” value turned out to be 9.57%. In the case of `COc1cccc(-n2nnc3c(=O)n(CC(=O)N4CCCCC4)cnc32)c1`, the “hERG current change (%, negative = inhibition) at 1uM” value was found to be 4.88%. Regarding `CNC(=O)c1ccccc1Sc1ccccc1C#N`, the “hERG current change (%, negative = inhibition) at 1uM” value worked out at 15.5%. `O=C(O)c1ccccc1C(=O)NCCc1ccc(Cl)cc1`: the “hERG current change (%, negative = inhibition) at 1uM” value turned out to be 12.8%. With `CCOc1ccccc1CNC(=O)CCc1cn(C)c2ccccc12`, the “hERG current change (%, negative = inhibition) at 1uM” value is 17.4%. The figure for `Cc1ccc(S(=O)(=O)NCCN2CCNC2=O)cc1` is 8.97%; for `OCCN(CC#CCC(O)(c1ccccc1)C1CCCC1)CCO` (centres unmarked) it is 11.1%; for `CCOC(=O)c1cc2sccc2n1CC(=O)N1CCCC1` it is 4.26%. Next, `O=C(O)c1ccc(N=NN2CCOCC2)cc1`: 7%; `COc1cc([N+](=O)[O-])ccc1NC(=O)CSc1ccccn1`: 3.11%.

For `CCn1c(SCC(=O)Nc2ccc3c(c2)OCCO3)nnc1-c1cccs1`, the “hERG current change (%, negative = inhibition) at 1uM” value is recorded as -11.9%.
